Laboratory results: the supplement of paper PMC10126150
Sequences with one replicate were seen in a single cluster, so their values are uncertain.

System: ATP
Experiment: switch fluorescence ratio, 500 uM ATP over buffer (Cy3 cluster intensity, sum of 5 cycles each) (fold (ratio)); higher = stronger signal-on switching upon ATP binding; sequences stand for … in TCGTCGGCAGCGTCAGATGTGTATAAGAGACAGTTTTTTTTTTTTTTTTTTTTTTTTT…TC
Conditions: aptamer strand: ATP DNA aptamer (quencher-CACCTGGGGGAGTATTGCGGAGGAAGG + anchor), 100 nM annealed; ATP concentration: 500 uM; one replicate
Procedure, shortened: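 Between each of five buffer/ATP cycles, the flow-cell was stripped with NaOH and re-annealed. Each cycle imaged Cy3-labelled switching-strand clusters, annealed to 100 nM quencher-labelled ATP aptamer on a modified Illumina MiSeq flow-cell, first in selection buffer and then after 15 min with 500 uM ATP at 22 °C. The fluorescence ratio is summed target-cycle over summed buffer-cycle Cy3 intensity per cluster, averaged per switch-domain sequence, with clusters outside 100-1000 RFU excluded.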
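Further: ATP exposure 15 min at 22 °C before imaging.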

Row | Sequence | switch fluorescence ratio
1 | GTAACTAAAT | 1
2 | AGTTGACCCG | 0.974
3 | GAACATCCTT | 1.08
4 | CGTCTGCGTA | 1.05
5 | CATTGTACAT | 1.05
6 | ATCGTATTGG | 0.993
7 | AGAATCTCGA | 0.978
8 | GGTGTTGGCC | 1.01
9 | TTGATTCACG | 1.01
10 | TTTCATGCTT | 0.984
11 | TCCTGATTCG | 1.03
12 | CGGGAGATCT | 0.993
13 | TTGCGGGACT | 1.17
14 | TGGTGTAGAC | 0.99
15 | TCGGGGTGAA | 1
16 | CGGCGTATGC | 1
17 | TTGGATGGGC | 1.04
18 | ACTCTGATCA | 1.06
19 | CCACGCCATT | 1.45
20 | GCGGCTGTTC | 0.996
21 | TTCGGAAATT | 1.04
22 | AACGGAGGGA | 1.02
23 | TGAACGGCCT | 1.02
24 | TCATACGTAG | 1.02
25 | GGCAATCACG | 1.18

Row | Sequence | switch fluorescence ratio
26 | TTCAGGACGT | 1.02
27 | AGCTATTTTC | 1.02
28 | ACGGACGCCG | 0.999
29 | TCTGATAATA | 1.01
30 | CGTCGTCTTA | 0.996
31 | TTTACTCGCT | 1.56
32 | TGGTTGGCTG | 1.01
33 | CTAGTTAATC | 1.01
34 | AGTGAGTGAC | 0.956
35 | ATTGAGTACG | 0.928
36 | TTCGTCTAGA | 0.985
37 | AATGCTTGCG | 1.02
38 | TAGAAAGTAT | 1
39 | TTGTCTTAGC | 0.928
40 | GATAGAGTA | 0.99
41 | GTTCGGTGCG | 0.987
42 | TCGACCTGTA | 1.05
43 | CCATTACTTG | 1.03
44 | AGCCGTCGAA | 1.02
45 | TAAGTTATCC | 1.03
46 | CGATTGCGCT | 1.01
47 | TAACGTGCCA | 1.01
48 | AGGAGCATGG | 0.928
49 | AAAAGAGCCT | 1.05
50 | AGCGGTTTTT | 1

Row | Sequence | switch fluorescence ratio
51 | TGCGGCTCAG | 0.985
52 | AGGCAGCGGG | 0.997
53 | GTGGGAACTA | 0.986
54 | AAAGCATAGC | 1.06
55 | CGAAGGACTG | 0.968
56 | CTATGCAAGG | 1.49
57 | TATGAGGTTT | 0.973
58 | TTATATCAGG | 0.969
59 | CCTCAGGGGA | 3.61
60 | CCTCTCCTTT | 1.1
61 | TATGTCGGAT | 0.989
62 | TTTTTCCACT | 0.963
63 | CCACATATGT | 1.01
64 | CGCATCATTC | 1.89
65 | AGTAAAGCTA | 1.01
66 | CGGTTCCTC | 1.07
67 | CCAACGAAGG | 1.01
68 | GAGCTGGCCA | 1.09
69 | TGAGAATTGG | 0.984
70 | GGCTGTTTCT | 0.933
71 | TAAGCTGATG | 1.15
72 | AGCAGATAAA | 0.955
73 | GTTTCAGGTG | 3.33
74 | GGGGCTTCGT | 1.01
75 | TCGTGCCCAG | 1

Row | Sequence | switch fluorescence ratio
76 | TGCCAGGCAC | 1.01
77 | CATCGGGTCC | 1.02
78 | TCACATGAAA | 1.01
79 | GATCGTCATG | 1.01
80 | GCTATCAAGT | 0.984
81 | TATTGCCTGG | 1.04
82 | GGTGGCCACG | 0.964
83 | TGGGTCTCAT | 0.975
84 | CTTCTGACCC | 1.36
85 | ATGGCTCAAC | 1.02
86 | CACTACGCGC | 2.75
87 | CCAAGACGAC | 3.27
88 | TGGGGCCGAC | 0.913
89 | GATTTATCGG | 1.03
90 | TAGATGTAT | 0.989
91 | GTGAGGCGTG | 0.985
92 | GCTGAAGAAA | 0.996
93 | CCGTCTAGGT | 1.01
94 | GGTAGGGTAT | 1.02
95 | CTCACGGTAT | 1.27
96 | TACGTCGTGT | 1.03
97 | TGCAGAACTC | 1.42
98 | AGGTTAGAAA | 1.04
99 | CAGGGAGACT | 0.98
100 | TCAGCAGTCC | 1.65

Row | Sequence | switch fluorescence ratio
101 | CGACTTCTGT | 0.989
102 | GCAAACGTCA | 1
103 | ACGATTGCAG | 1.04
104 | CTGTCATTGG | 1.04
105 | TAAGACATTC | 0.999
106 | CTTAAAAGCA | 0.981
107 | AAGTAGGGCT | 0.945
108 | TAAGGTCGGG | 0.995
109 | TGGCGGGCAC | 1.05
110 | CATTAGCGA | 1.34
111 | CGGGTGAAGA | 1.01
112 | GGACCTTAAT | 1.03
113 | ATACAGTTTT | 1
114 | AATTGTGGTC | 0.987
115 | TGACATCGGT | 1.01
116 | AAGAAGGTTT | 1.05
117 | AACGTAACGA | 1.33
118 | ACGAGGTACG | 1.08
119 | CCAGGTCTGT | 1.16
120 | TTTCTGGCCT | 1.01
121 | GTCAAATTGC | 1.03
122 | TAGAATACGC | 1.14
123 | TGAGGTCGC | 0.97
124 | CGAAGATTG | 0.973
125 | GGAAAATTAC | 1.02

Row | Sequence | switch fluorescence ratio
126 | GAAAGATTG | 1.06
127 | TTCTTTCTG | 0.962
128 | GTTTAGAGAT | 0.996
129 | ACCTGTGGTG | 1.06
130 | GGCAACTAGT | 1
131 | GCGTTCAAGC | 1.04
132 | TTCCGCAGAG | 4.13
133 | CGCCCTGCCT | 0.979
134 | ACCAATGACA | 1.07
135 | TTGTTAATTA | 1.01
136 | ATGCGAACT | 1
137 | GCGACGGCGG | 1.03
138 | ACCGTCCTTT | 1.05
139 | ACCGGCTTAA | 1.02
140 | TTGTGATCAA | 1.02
141 | ATCATCGTCA | 1.01
142 | ATAGAACTA | 0.97
143 | CGGGATCCCC | 0.969
144 | TATACATGGT | 1.01
145 | AATTCTGTGT | 0.953
146 | CCCGTTCTCT | 1.01
147 | ATAATCATTC | 1.01
148 | GGTAGAAAG | 0.956
149 | TAGAAATTCT | 1.04
150 | TTTGGCGCG | 1.01

Row | Sequence | switch fluorescence ratio
151 | GGCCATCACA | 0.971
152 | CTGGGCCCCC | 1.03
153 | GGATGTATAT | 0.993
154 | CGGGTGCTTG | 1.08
155 | GGTCAACACA | 0.941
156 | ATATTCTG | 1.03
157 | TAATGTAAAT | 1.04
158 | TGATGTCCGG | 1.01
159 | GATCTATTCA | 1.02
160 | ACAGTATACT | 1.18
161 | TGGGGTAAC | 0.983
162 | TCGGATGTCT | 0.989
163 | CTGTCCGATA | 1.07
164 | TTTCTCCTGC | 1.23
165 | TATATAGTGG | 1.02
166 | TCTCAGAGGT | 0.97
167 | ACGGTTTTGA | 1
168 | GAAGCGTGGT | 0.984
169 | CTCTCTACAT | 1.03
170 | ATTCCCTAAG | 1.04
171 | AGTCGTACTA | 0.992
172 | GCTCATTATG | 1
173 | CTATATAATG | 0.974
174 | TCACCGGGTG | 4.46
175 | TGGCAGTGCT | 0.986

Row | Sequence | switch fluorescence ratio
176 | TTCGAGTGCG | 0.932
177 | CTATCAATTT | 1.08
178 | GGGCCAGAGC | 0.93
179 | CGGAGGCGCT | 1.01
180 | ATGCGATGT | 0.99
181 | TATGCTCTCT | 1.03
182 | GGGCTAATTT | 1.01
183 | GAATACAAAG | 1.03
184 | CTTTTAGCGC | 1.01
185 | GTTCTCCAGT | 1.06
186 | CGCGACCGTA | 1.04
187 | TATAGGGCA | 1.01
188 | TGCCTTTAAC | 1
189 | GCAGGTGTCC | 1.34
190 | CTTCTTTAGT | 1.02
191 | GCAGCTTGCG | 1.04
192 | GCTCTAGGG | 1
193 | AGTCTCGATA | 0.963
194 | CATGGGGCAC | 1.01
195 | AGCTACCAGG | 1.49
196 | AGCAATTTGG | 1.17
197 | CTGTGTTCGC | 0.993
198 | GGCGATGAAC | 1.05
199 | CGCTGGTTTT | 1
200 | GCCTTTATTG | 0.961
